The test system of the series is Huh7.5 cells. Nature of the series: Cell viability, CellTiter 96 AQueous One Solution Cell Proliferation Assay. It counts as cell-based, human. To be noted: 500 IU/mL interferon-α2b, 20 μM ribavirin or 50 μM amantadine.

Consider `NC12CC3CC(CC(C3)C1)C2` [amantadine], for which the cytotoxic effect result is given as “No significant cytotoxic effect”.
The result for `NC(=O)c1ncn([C@@H]2O[C@H](CO)[C@@H](O)[C@H]2O)n1` [ribavirin] reads “No significant cytotoxic effect”.

Values taken from patent publication US8569472B2, “Efficient cell culture system for hepatitis C virus genotype 6A” (priority 2007, dated 2013).
